{
  "source": "paper PMC6919601",
  "about": "“Identification of Plasmodium dipeptidyl aminopeptidase allosteric inhibitors by high throughput screening” (PLoS ONE, 2019)",
  "note": "Screen size: about 110,000 compounds; about 230 (0.21%) showed an effect of 50% or more. Some of the results follow.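 Note: 30 min substrate incubation versus DMSO and 10 µM JCP410 controls.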",
  "data": [
    {"target": "DPAP1 (Plasmodium falciparum, UniProt Q8IIJ9)", "sequence (Q8IIJ9 whole entry, looked up)": "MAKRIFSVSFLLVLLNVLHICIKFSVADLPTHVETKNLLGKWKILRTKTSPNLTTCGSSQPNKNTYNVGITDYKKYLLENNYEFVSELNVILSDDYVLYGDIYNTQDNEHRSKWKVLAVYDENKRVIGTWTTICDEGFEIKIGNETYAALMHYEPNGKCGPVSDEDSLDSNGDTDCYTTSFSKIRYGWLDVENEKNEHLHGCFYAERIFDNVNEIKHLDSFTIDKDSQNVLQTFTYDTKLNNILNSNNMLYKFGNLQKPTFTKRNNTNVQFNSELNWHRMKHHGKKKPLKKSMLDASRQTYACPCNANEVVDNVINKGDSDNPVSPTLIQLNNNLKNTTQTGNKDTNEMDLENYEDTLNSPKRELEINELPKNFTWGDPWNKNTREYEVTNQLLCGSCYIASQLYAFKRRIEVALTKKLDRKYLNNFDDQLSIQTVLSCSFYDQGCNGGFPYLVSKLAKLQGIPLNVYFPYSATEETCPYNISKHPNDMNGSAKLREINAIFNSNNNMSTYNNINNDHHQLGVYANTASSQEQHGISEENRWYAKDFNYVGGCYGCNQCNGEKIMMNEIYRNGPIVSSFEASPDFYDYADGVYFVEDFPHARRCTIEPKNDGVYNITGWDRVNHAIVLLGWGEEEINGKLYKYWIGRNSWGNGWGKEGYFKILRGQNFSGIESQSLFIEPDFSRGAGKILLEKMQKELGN", "assay": "primary screen, percent inhibition; read by cleavage of a fluorogenic dipeptide substrate; higher = more effect of the substance", "design": "species or system P. falciparum D10 trophozoite lysates; single well", "units": {"% Inhibition @ 10 uM": "%"}, "values": [
      {"smiles": "O=C(c1cc2c(s1)-c1ccccc1S(=O)(=O)C2)N1CCC(N2CCCCC2)CC1", "% Inhibition @ 10 uM": 0.953},
      {"smiles": "Oc1cccc2cnccc12", "% Inhibition @ 10 uM": -5.38},
      {"smiles": "COc1ccccc1CNc1nc2ccc(Cl)cc2nc1-n1nc(C)cc1C", "% Inhibition @ 10 uM": -1.14},
      {"smiles": "COc1ccc(CNS(=O)(=O)c2cc(Cl)ccc2Cl)cc1", "% Inhibition @ 10 uM": 0.247},
      {"smiles": "Cc1oc(-c2ccc3c(c2)OCCO3)cc1C(=O)NC(C(=O)O)C(C)C", "note": "(centres unmarked)", "% Inhibition @ 10 uM": -9.34},
      {"smiles": "CSC1=C(C#N)C(c2sccc2C)CC(=O)N1", "note": "(centres unmarked)", "% Inhibition @ 10 uM": -3.14},
      {"smiles": "N#Cc1ccccc1NC(=O)Nc1cccc(Cl)c1", "% Inhibition @ 10 uM": 2.62},
      {"smiles": "CCCN(CCC)C(=O)Cn1c(SCc2ccc(F)cc2)nc2cccnc21", "% Inhibition @ 10 uM": -1.6},
      {"smiles": "N#C/C(=C\\c1ccco1)c1nc(C2CC2)cs1", "% Inhibition @ 10 uM": 5.03},
      {"smiles": "CCOC(=O)c1cc2n(n1)C(C(F)(F)F)CC(c1ccccc1)N2", "note": "(centres unmarked)", "% Inhibition @ 10 uM": -0.142},
      {"smiles": "Cn1c(NC(=O)C2CCN(C(=O)c3cnn(-c4ccccc4)c3-n3cccc3)CC2)nc2ccccc21", "% Inhibition @ 10 uM": 4.95},
      {"smiles": "CN1CCN(S(=O)(=O)c2cnccc2N2CCN(CCO)CC2)CC1", "% Inhibition @ 10 uM": -5.13},
      {"smiles": "CC(C)COc1ccc2[nH]c3c(c2c1)CCCC3=O", "% Inhibition @ 10 uM": 0.0792},
      {"smiles": "CC(C(=O)NCCc1c[nH]c2ccccc12)n1sc2ccccc2c1=O", "note": "(centres unmarked)", "% Inhibition @ 10 uM": -3.43},
      {"smiles": "Cc1ccc(C)c(N2C(=O)c3ccccc3C2=O)c1", "% Inhibition @ 10 uM": 0.331},
      {"smiles": "COc1ccc(-c2cc(C(F)(F)F)nc(SCC(=O)NCCCn3ccnc3)n2)cc1", "% Inhibition @ 10 uM": 11.3},
      {"smiles": "Fc1ccccc1N1CCN(C2CCN(CCc3ccccc3)CC2)CC1", "% Inhibition @ 10 uM": 3.48},
      {"smiles": "O=C(O)c1ccc(NS(=O)(=O)c2cccc(C(=O)Nc3ccc([N+](=O)[O-])cc3)c2)cc1", "% Inhibition @ 10 uM": 1.64},
      {"smiles": "O=C(O)CCn1c2ccc(Cl)cc2c2cc(Cl)ccc21", "% Inhibition @ 10 uM": 3.06},
      {"smiles": "COc1ccc(S(=O)(=O)NC2CC3CCC2C3)cc1C", "note": "(centres unmarked)", "% Inhibition @ 10 uM": -12.3},
      {"smiles": "Cc1ccc(CN(Cc2ccco2)C(=O)COc2ccc(C)cc2)cc1", "% Inhibition @ 10 uM": 1.25},
      {"smiles": "C=CCOc1ccc(C2C3=C(CC(C)(C)CC3=O)OC3=C2C(=O)CC(C)(C)C3)cc1OC", "% Inhibition @ 10 uM": -7.34},
      {"smiles": "CCc1cccc2c(C(=O)C(F)(F)F)cn(CC(=O)NCC3CCCO3)c12", "note": "(centres unmarked)", "% Inhibition @ 10 uM": 5.52},
      {"smiles": "CC(=O)Nc1ccc(C(C)(C)C)cc1NC(C)=O", "% Inhibition @ 10 uM": 0.992},
      {"smiles": "COc1cccc(OC)c1C(=O)N1CCN(Cc2cccnc2)CC1", "% Inhibition @ 10 uM": 5.55},
      {"smiles": "CCSc1nc(-c2ccc(OC)cc2)cc(-c2ccc(OC)cc2)c1C#N", "% Inhibition @ 10 uM": -7.35},
      {"smiles": "O=C(O)CCC1COc2ccccc2O1", "note": "(centres unmarked)", "% Inhibition @ 10 uM": -5.38},
      {"smiles": "O=C1CSC2(C(=O)Nc3ccccc32)N1c1ccc(Cl)c(Cl)c1", "note": "(centres unmarked)", "% Inhibition @ 10 uM": -0.292},
      {"smiles": "Cc1nc2ccccc2n1CCc1nc2c3ccccc3nc(NCCCN3CCCCC3)n2n1", "% Inhibition @ 10 uM": -2.42},
      {"smiles": "COc1ccc(C(=O)Nc2cccc(C(F)(F)F)c2)c(OC)c1", "% Inhibition @ 10 uM": 4.49},
      {"smiles": "CC(C)CC(=O)C1=C(O)C(=O)N(Cc2ccccc2)C1c1ccccc1", "note": "(centres unmarked)", "% Inhibition @ 10 uM": 4.61},
      {"smiles": "CC1CC(C)CN(S(=O)(=O)c2ccc(F)cc2)C1", "note": "(centres unmarked)", "% Inhibition @ 10 uM": 3.95},
      {"smiles": "COc1ccc2cc3c(N)nn(C(=O)c4cc(OC)c(OC)c(OC)c4)c3nc2c1", "% Inhibition @ 10 uM": -2.14},
      {"smiles": "CCC(C)NC(=O)c1ccc(NC(=O)C2(c3ccc(OC)cc3)CCOCC2)cc1", "note": "(centres unmarked)", "% Inhibition @ 10 uM": 3.17},
      {"smiles": "COc1ccc(NC(=O)c2sc3nc4ccccc4cc3c2N)cc1", "% Inhibition @ 10 uM": 5.48},
      {"smiles": "O=C(NCCCN1CCc2ccccc2C1)C1CCCN(S(=O)(=O)N2CCCCCC2)C1", "note": "(centres unmarked)", "% Inhibition @ 10 uM": 3.48},
      {"smiles": "COc1cccc(C2C=C(c3ccc(C)c(C)c3)Nc3ncnn32)c1OC", "note": "(centres unmarked)", "% Inhibition @ 10 uM": -1.48},
      {"smiles": "Clc1ccccc1OCCCN1CCOCC1", "% Inhibition @ 10 uM": 3.95},
      {"smiles": "Cc1ccc(S(=O)(=O)N2CCN(C(=O)CSc3nc(C)cc(O)n3)C2)cc1", "% Inhibition @ 10 uM": -1.69},
      {"smiles": "O=C1C2C3CCC(C3)C2C(=O)N1c1ccc(Oc2ccccc2)cc1", "note": "(centres unmarked)", "% Inhibition @ 10 uM": -5.13},
      {"smiles": "COc1ccc(CCNC(=O)c2cnn(-c3ccccc3)c2-n2cccc2)c(OC)c1", "% Inhibition @ 10 uM": -7.1},
      {"smiles": "Cc1ccc(S(=O)(=O)Nc2c(Cl)cc(Cl)c3cccnc23)cc1", "% Inhibition @ 10 uM": 0.0345},
      {"smiles": "O=C(NCC1CCCO1)c1cccs1", "note": "(centres unmarked)", "% Inhibition @ 10 uM": -1.22},
      {"smiles": "c1ccc2c(c1)nc1n2CCN1CCN1CCCCC1", "% Inhibition @ 10 uM": -5.2},
      {"smiles": "Cc1c(C(=O)NCC2CCCO2)oc2ccc3c(c12)C(=O)CC(C)(c1ccc(Cl)cc1)O3", "note": "(centres unmarked)", "% Inhibition @ 10 uM": -0.447},
      {"smiles": "COc1ccccc1-c1nc2s/c(=C\\c3sccc3C)c(=O)n2n1", "% Inhibition @ 10 uM": -1.18},
      {"smiles": "Cc1cccc(C2C3(C#N)C(N)=NC4(OCCO4)C23C#N)c1", "note": "(centres unmarked)", "% Inhibition @ 10 uM": -3.13},
      {"smiles": "N#Cc1ccccc1NC(=O)Cc1ccccc1", "% Inhibition @ 10 uM": 4.75},
      {"smiles": "COc1ccc(-c2nc(CSc3nnc(C)n4c3cc3sccc34)c(C)o2)cc1OC", "% Inhibition @ 10 uM": 2.81},
      {"smiles": "CCOC(=O)c1c(NC(=O)COc2ccc(Cl)cc2Cl)sc(C(=O)N2CCCCC2)c1C", "% Inhibition @ 10 uM": -5.03}
    ]}
  ]
}
